# Source: PubChem BioAssay AID1468 (National Center for Advancing Translational Sciences (NCATS), 2008)
# In all, about 280,000 compounds went through this assay and about 1,100 (0.39%) were called active. This list was built around the results that the source calls inconclusive (neither active nor inactive); the mix of calls is not that of the screen. The call rests on the fitted dose curve; in most records, active means well fitted inhibition curve with a large enough effect; inconclusive means small, poorly fitted or top-dose-only effect, or effect the other way; inactive means flat fitted curve, though single readings scatter. No potency is given beside an inconclusive call; the fits are too rough.
# Molecular target: Microtubule-associated protein tau (Homo sapiens) (UniProt P10636)
# Sequence of UniProt P10636 (P10636 whole entry, looked up): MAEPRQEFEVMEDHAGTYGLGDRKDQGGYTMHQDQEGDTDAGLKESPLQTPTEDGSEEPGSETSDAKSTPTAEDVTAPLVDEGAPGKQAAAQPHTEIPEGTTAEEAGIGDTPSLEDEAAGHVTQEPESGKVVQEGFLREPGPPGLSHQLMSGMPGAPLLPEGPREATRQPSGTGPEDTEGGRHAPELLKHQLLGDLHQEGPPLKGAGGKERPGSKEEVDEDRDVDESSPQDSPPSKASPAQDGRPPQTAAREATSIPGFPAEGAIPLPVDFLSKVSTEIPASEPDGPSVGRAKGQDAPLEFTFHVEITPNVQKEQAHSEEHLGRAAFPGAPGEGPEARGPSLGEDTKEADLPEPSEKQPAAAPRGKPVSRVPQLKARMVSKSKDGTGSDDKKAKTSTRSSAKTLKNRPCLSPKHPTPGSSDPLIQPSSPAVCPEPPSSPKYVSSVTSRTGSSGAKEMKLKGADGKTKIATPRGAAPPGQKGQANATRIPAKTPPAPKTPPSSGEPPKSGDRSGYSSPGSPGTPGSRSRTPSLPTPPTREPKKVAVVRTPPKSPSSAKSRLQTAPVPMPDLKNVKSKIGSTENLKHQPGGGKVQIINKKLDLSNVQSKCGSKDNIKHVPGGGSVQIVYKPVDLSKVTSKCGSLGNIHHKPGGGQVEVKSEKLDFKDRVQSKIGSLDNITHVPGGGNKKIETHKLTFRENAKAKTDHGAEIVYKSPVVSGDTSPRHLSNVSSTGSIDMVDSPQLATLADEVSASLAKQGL
# Test: qHTS for Inhibitors of Tau Fibril Formation, Fluorescence Polarization; further: nearly all actives have a fitted effect of over 55% in size
# Details: K18 P301L tau heparin fibrillization, Alexa594 FP, 6 h; series mostly up to 57.7 µM; activity, negative = inhibition: at the top concentration
# In short: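 Heparin (20 uM) drove fibril formation of recombinant tau K18 P301L, 15 uM unlabeled with 0.24 uM Alexa 594 label, for 6 hr at 37 C in 100 mM sodium acetate pH 7. Fluorescence polarization (555/632 nm) read 1 hr after 30 uM ThT.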
# On the % scale 0 is the no-effect control and ±100 the full control effect; potency means the concentration at half of the fitted maximal effect; tags describe the fitted curve by direction and shape.
Compound,Potency,"activity, negative = inhibition"
Cc1csc(NC(=O)Cc2coc3cc(C)c(C(C)C)cc23)n1,"inconclusive [inhibitor, single point]",
Cc1cc(C(=O)OCC(=O)N2CCN(C(=O)c3ccco3)CC2)c(C)n1-c1ccc(F)cc1,"inconclusive [inhibitor, single point]",
Cc1ccc(NC(=O)C2CCCN(c3nnc(-n4c(C)ccc4C)s3)C2)cc1Cl (stereo unspecified),"inconclusive [inhibitor, partial curve, poor fit]",
CCCCc1ccc(NC(=O)COc2cccc3c(=O)n(C)ccc23)cc1,,inactive: -13.9%
C/C(CC(=O)Nc1ccc(Cl)c(C(F)(F)F)c1)=N\NC(=O)c1ccccc1O,"inconclusive [inhibitor, partial curve]",
Cc1nn(-c2ccccc2)c(N2CCCC2)c1/C=N/NC(=S)Nc1ccccc1F,"inconclusive [activator, single point]",
Cc1ccccc1CN1c2ccccc2-c2nc(SCC(=O)NCCc3ccccc3)ncc2S1(=O)=O,"inconclusive [inhibitor, partial curve, poor fit]",
C[N+](C)=C1SCC(C)(/C=N/O)S1 (stereo unspecified),"inconclusive [inhibitor, partial curve]",
O=C1NC(=O)/C(=C\c2cn(Cc3ccccc3F)c3ccccc23)N1,,inactive: 10.6%
NC(=S)NCCCC(N)C(=O)O (stereo unspecified),"inconclusive [inhibitor, full curve, poor fit]",
CO/N=C(\C)CCN1CCc2nc(-c3ccccc3)c(-c3ccccc3)cc2C1,"inconclusive [inhibitor, partial curve, poor fit]",
CCOC(=O)c1cc(NC(=O)c2cccnc2)cc(C(=O)OCC)c1,"inconclusive [inhibitor, partial curve]",
O=C(NCc1nc(-c2ccc(C(F)(F)F)cc2)no1)Nc1cc(Cl)cc(Cl)c1,active: 15.8 µM,
O=C(Nc1cccc(N=Cc2cc(Br)cc(Br)c2O)c1)c1ccco1,"inconclusive [inhibitor, partial curve]",
COCc1cc(N2CCCCC2)nc(-c2ccccc2)n1,"inconclusive [inhibitor, single point]",
Cc1ccnc(NS(=O)(=O)c2ccc(N)cc2)n1,"inconclusive [inhibitor, partial curve, poor fit]",
COC(=O)c1ccc(OCCOc2ccccc2)cc1,,inactive: -14.4%
Cc1ncc(CO)c(/C=N/NC(=O)c2cc(Br)ccc2O)c1O,"inconclusive [activator, partial curve, poor fit]",
CCCCn1nc(NC(=O)c2cccs2)c2cc3ccccc3nc21,"inconclusive [inhibitor, single point]",
CC(=O)OCC1OC(C#CC(C)(C)C)C=CC1OC(C)=O (stereo unspecified),"inconclusive [inhibitor, full curve, poor fit]",
CCC(=O)OCCCNc1nc(-c2ccc(Cl)cc2)nc2ccccc12,"inconclusive [inhibitor, partial curve]",
CSC1=C(C#N)C(c2ccccc2)C(C(C)=O)=C(C)N1 (stereo unspecified),,inactive: -1.17%
CCC1c2ccc(C)n2CCN1C(=O)Nc1cc(Cl)ccc1OC (stereo unspecified),"inconclusive [inhibitor, partial curve]",
Cc1cc(/C=N/n2cnnc2)c(C)n1-c1ccc(OCc2ccc(Cl)cc2Cl)cc1,,inactive: 11.4%

Compound,Potency,"activity, negative = inhibition"
Cc1onc(-c2ccccc2)c1C(=O)Oc1cccnc1,,inactive: 7.62%
OCc1ccccc1N=c1ssnc1Cl,"inconclusive [inhibitor, single point]",
COc1cc(/C=C2/SC(=Nc3ccc(O)cc3)NC2=O)ccc1O,"inconclusive [activator, full curve]",
CCN(CC)C(=O)CSc1nc(O)c(Cc2ccccc2)c(=O)n1-c1ccccc1C,"inconclusive [inhibitor, single point]",
CCOC(=O)Cc1csc(NC(=S)NC(=O)c2cc(OC)cc(OC)c2)n1,"inconclusive [inhibitor, partial curve]",
CCOc1ccc(/C=N/NC(=O)c2nnn(-c3nonc3N)c2-c2ccc(OCC)cc2)cc1,"inconclusive [inhibitor, single point]",
O=C(NC(=S)Nc1ccc(S(=O)(=O)Nc2nccs2)cc1)c1ccc(Br)o1,,inactive: 2.49%
CCCOc1ccc(OCCNC2CCCC2)cc1,,inactive: -4.57%
O=C(CN1CCOCC1)Nc1cc(C(F)(F)F)ccc1Cl,,inactive: 6.81%
O=C(Nc1ccc2c(c1)N(C1CCCC1)C(=O)c1ccccc1S2)c1ccc(F)cc1,,inactive: -18%
COC(=O)/C(=C1/Oc2cc(C)oc(=O)c2S1)C(F)(F)F,"inconclusive [inhibitor, partial curve]",
Cc1cc(C)c(NC(=O)CCCSc2nnc(N)s2)c(C)c1,,inactive: 0.788%
CN(C)S(=O)(=O)c1cccc(NC(=O)c2cc(-c3cccs3)nc3ccccc23)c1,"inconclusive [inhibitor, partial curve]",
O=S(=O)(c1cccc(Cl)c1)c1nnn2c1nc(NC1CCCCCC1)c1sccc12,"inconclusive [inhibitor, full curve]",
Cc1ccc(C)c(/C=C/C(=O)c2ccccc(=O)c2O)c1,"inconclusive [inhibitor, partial curve]",
O=C(CSc1ccccn1)N1CCN(c2ccccc2)CC1,,inactive: 7.11%
Cc1cc(C)cc(N(CC(=O)Nc2ccc(-c3nc4ccc(C)cc4s3)cc2)S(C)(=O)=O)c1,"inconclusive [inhibitor, partial curve, poor fit]",
CC(=O)Nc1cc(C(=O)N2CCN(C)CC2)ccc1Sc1ccc(C)cc1,"inconclusive [inhibitor, single point]",
COc1ccc(C(=O)N/N=C/c2ccc(OC(=O)c3cccs3)cc2)cc1,"inconclusive [inhibitor, partial curve]",
CC(C)(C)OC(=O)N/N=C/c1ccc(C(=O)O)cc1,"inconclusive [inhibitor, partial curve, poor fit]",
COc1cccc(-n2c(=O)c3sc4ccccc4c3n(CC(=O)Nc3cccc(Cl)c3)c2=O)c1,active: 22.4 µM,
Cc1c(C(=O)N(C)c2cccc(C(F)(F)F)c2)sc2nc3n(c(=O)c12)CCCCC3,"inconclusive [inhibitor, single point]",
CC(C)n1c(=S)[nH]c2ccccc21,,inactive: -2.77%
O=C(NCc1ccco1)c1cc(-c2ccccn2)nc2ccccc12,,inactive: 5.15%

Compound,Potency,"activity, negative = inhibition"
CSc1nn(Cc2ccc(Br)cc2)c(N(C(C)=O)C(C)=O)c1S(=O)(=O)c1ccccc1,"inconclusive [inhibitor, partial curve]",
Cc1cc(C(=O)NCC(=O)OCC(=O)N(C(C)C)C(C)C)ccc1[N+](=O)[O-],"inconclusive [inhibitor, single point]",
COC(=O)c1cccc(NC(=S)Nc2ccc(Cl)c(Cl)c2)c1,"inconclusive [inhibitor, single point]",
O=C(CSc1nnc(SCc2ccc(Cl)cc2)s1)N1CCOCC1,,inactive: 1.71%
COc1ccc(CCNC(=O)C(=O)NCC(c2ccco2)S(=O)(=O)c2ccccc2)cc1OC (stereo unspecified),,inactive: -1.5%
Cc1nc(-c2cccc(NS(=O)(=O)c3ccc4ccccc4c3)c2)cs1,"inconclusive [inhibitor, partial curve, poor fit]",
Cc1ccc(-n2ncc(C#N)c2/N=C/N2CCN(C)CC2)cc1,,inactive: 2.98%
O=C(NC1CC(=O)N(c2ccc(Cl)cc2)C1)c1ccc(S(=O)(=O)N2CCCC2)cc1 (stereo unspecified),,inactive: -5.02%
CCOc1ccc(NC(=O)CSc2nnc(-c3ccc(C)cc3)c(-c3ccc(C)cc3)n2)cc1,"inconclusive [activator, partial curve, poor fit]",
O=C(CCSc1ccc(Cl)cc1)N1CCN(c2ccc(O)cc2)CC1,,inactive: -5.24%
C=CCN=C1S/C(=C\c2ccc(N(C)C)cc2)C(=O)N1CC=C,,inactive: 9.33%
CC(C)CC(=O)NC(=S)Nc1cccc2nsnc12,,inactive: -2.96%
COc1cccc(C2C(C(C)=O)=C(O)C(=O)N2Cc2ccco2)c1 (stereo unspecified),,inactive: 0.364%
Cc1cc(Cl)ccc1-n1c(-c2cccnc2)n[nH]c1=S,,inactive: -1.84%
CN(C)c1nc(N)c2ncc(=S)[nH]c2n1,"inconclusive [inhibitor, full curve]",
CC(C)CC(CO)N1CCN(C(=O)c2ccc(Cl)cc2Cl)CCC1=O (stereo unspecified),"inconclusive [inhibitor, single point]",
O=S(=O)(c1ccc(Cl)cc1)N1CCN(C(=S)Nc2ccc(F)c(Cl)c2)CC1,"inconclusive [inhibitor, partial curve]",
CCOC(=O)OCC1OC(C#Cc2ccc(C)cc2C)C=CC1OC(=O)OCC (stereo unspecified),,inactive: 0.609% [at 11.6 µM]
N#Cc1c(N)oc(-c2ccc3c(c2)OCO3)c1-c1ccc2c(c1)OCO2,,inactive: 12.4%
Cc1ccc2nc(N3CCN(c4cccc(C)c4C)CC3)c3nnnn3c2c1,inactive,
Cc1ccc(C)c(C(=O)COC(=O)c2ccc(Br)o2)c1,"inconclusive [inhibitor, partial curve, poor fit]",
CCc1cccc(NC(=O)CSc2ncc3c(n2)-c2ccccc2N(Cc2ccccc2C)S3(=O)=O)c1,"inconclusive [inhibitor, single point]",
COc1cc(NC(=O)c2nccn2C)cc(C(=O)Nc2cccc(C(F)(F)F)c2)c1,"inconclusive [inhibitor, partial curve]",
